Experimental data from PubChem BioAssay AID624296 (National Center for Advancing Translational Sciences (NCATS), 2012).
“And” between values parts separate entries of the source, which are not always exact repeats. Equal values may be shown once. The campaign covered roughly 350,000 compounds. About 9,900 (2.8%) were called active. The inconclusive results got no clear call from the source; some entries with a clear call stand among them for comparison. Calls come from the whole dose curve; as a rule, active = well fitted activation curve with a large enough effect; inconclusive = small, poorly fitted or top-dose-only effect; inactive = no such curve, though single readings can be large or run the other way. Potencies of inconclusive entries are doubtful fits and often do not repeat.

Test: A quantitative high throughput screen for small molecules that induce DNA re-replication in MCF 10a normal breast cells. Note: nearly all actives have a fitted effect of over 50% in size.
Settings: MCF 10A DNA re-replication, Hoechst nuclear intensity, 48 h; series mostly up to 46.1 µM
Potency is the fitted concentration of half-maximal effect; tags give direction and shape of the fitted curve.

For Cc1ccc(C(=O)N/C(=C/c2ccco2)C(=O)Nc2cccc(C(=O)O)c2)cc1, which Potency is on record?
The Potency was “inactive”.

With CCn1nc(NC(=O)C(C)(C)C)c2cc3cccc(C)c3nc21 as the compound, how does the Potency read?
Its Potency is active: 6.51 µM.

For O=C(CCCN1C(=O)S/C(=C/C=C/c2ccccc2)C1=O)Nc1ccc(C(=O)O)cc1, which Potency is on record?
The Potency was “inactive”.

For Nc1nc2ccc(-c3nc4ccccc4o3)cc2s1, which Potency is on record?
Its Potency is inconclusive: 29.1 µM [activator, single point].

Which Potency does the source give for N#C/C(=C\Nc1ccc2c(c1)OCCO2)c1nc2ccccc2[nH]1 here?
Its Potency is inconclusive: 18.4 µM [activator, single point].

Which Potency does the source give for O=C(O)C1CCCCC1C(=O)Nc1ccc(Cl)cc1 (stereo unspecified) here?
Its Potency is inconclusive: 3.66 µM [activator, partial curve, poor fit].

Which Potency does the source give for CN(C)c1ccc(C(=O)Nc2nnc(-c3ccc(Cl)cc3)o2)cc1 here?
The Potency was inconclusive: 13 µM [activator, partial curve, poor fit].

With Cc1ccc2oc3c(c(=O)c2c1)C(c1cccc(Br)c1)N(Cc1ccco1)C3=O (stereo unspecified) as the compound, how does the Potency read?
Its Potency is inconclusive: 25.9 µM [activator, single point].

For C=CCc1ccccc1OCC(O)CN1CCN(c2ccccc2OC)CC1 (stereo unspecified), which Potency is on record?
Its Potency is inconclusive: 18.4 µM [activator, single point].

With C[C@@H](C(=O)NCC1CC1)[C@@H]1C[C@@]1(C)[C@@H](NC(=O)OCc1ccccc1)c1ccccc1 as the compound, how does the Potency read?
The Potency was “inactive”.

For CC1CCN(C(=O)COC(=O)c2ccccc2C(=O)c2ccccc2)CC1, which Potency is on record?
Its Potency is “inactive”.

With C[C@H](NC(=O)c1nc[nH]c1C(=O)NCC(=O)OC(C)(C)C)C(=O)OC(C)(C)C as the compound, how does the Potency read?
Its Potency is “inactive”.

For CCOC(=O)C(=Cc1ccc(-c2ccsc2C(=O)OC)o1)C(=O)OCC, which Potency is on record?
The Potency was inconclusive: 18.4 µM [activator, single point].

With CC1(C)CCc2cc(-c3ccn(S(=O)(=O)c4ccccc4Cl)n3)ccc2O1 as the compound, how does the Potency read?
Its Potency is inconclusive: 1.03 µM [activator, full curve, poor fit].

Which Potency does the source give for Cc1ccc(-c2cc(C(=O)N/N=C/C=C/c3ccco3)c3ccccc3n2)cc1C here?
The Potency was inconclusive: 16.4 µM [activator, partial curve].

For COCCNC(=O)/C(C#N)=C/C=C/c1ccccc1[N+](=O)[O-], which Potency is on record?
The Potency was active: 14.6 µM.

Which Potency does the source give for CCOc1ccc(CN(C)C(=O)CCl)cc1 here?
The Potency was inconclusive: 29.1 µM [activator, single point].

With O=C1OC(c2ccccc2)=C/C1=C/N1CCOCC1 as the compound, how does the Potency read?
Its Potency is inconclusive: 8.2 µM [activator, partial curve].

For COc1ccc(NC(=O)c2ccc([N+](=O)[O-])o2)cc1, which Potency is on record?
Its Potency is active: 16.4 µM.

With Cc1ccc(C(=O)c2oc3ccccc3c2NC(=O)c2cc(-c3ccccc3O)n[nH]2)cc1 as the compound, how does the Potency read?
The Potency was active: 9.2 µM.

With C#Cc1ccc(CN2CCC(C(=O)Nc3ccc(Oc4ccccc4)nc3)CC2)cc1 as the compound, how does the Potency read?
The Potency was inconclusive: 14.6 µM [activator, partial curve, poor fit].

With COc1ccc(OCCN2CCN(C(=O)c3ccc(OC)c(OC)c3)CC2)cc1 as the compound, how does the Potency read?
Its Potency is inconclusive: 29.1 µM [activator, single point].

Which Potency does the source give for CCOC(=O)c1[nH]c(C)c(C(=O)NCc2ccc(Cl)cc2)c1C here?
Its Potency is inconclusive: 29.1 µM [activator, single point].

For Cc1ccc(C(=O)C2CCN(C(=O)c3ccc(C)cc3)CC2)cc1, which Potency is on record?
Its Potency is inconclusive: 0.146 µM [activator, full curve, poor fit].

For Oc1ccccc1-c1nc(NCc2cccnc2)c2ccccc2n1, which Potency is on record?
Its Potency is inconclusive: 3.26 µM [activator, full curve].

Which Potency does the source give for CN(C)S(=O)(=O)c1ccc(Cl)c(C(=O)Nc2ccccc2[N+](=O)[O-])c1 here?
The Potency was “inactive”.

With Cc1ccc(S(=O)(=O)c2cc3c(=O)n4cccc(C)c4nc3n(CCc3ccccc3)c2=N)cc1C as the compound, how does the Potency read?
The Potency was inconclusive: 25.9 µM [activator, single point].

For Cc1cc(C)c(CN2CCC(CO)(CCOc3ccccc3)CC2)cc1C, which Potency is on record?
Its Potency is inconclusive: 25.9 µM [activator, single point].

With CCCOc1ccc(/C=N/NC(=O)CN2CCCCC2)cc1OCC as the compound, how does the Potency read?
Its Potency is inconclusive: 25.9 µM [activator, single point].

With COc1ccc(NCc2nnc(SCC(=O)Nc3nc(-c4ccccc4)cs3)n2-c2ccccc2)cc1 as the compound, how does the Potency read?
The Potency was active: 10.3 µM.

With CCN1CCN(C(=S)c2ccc(OCC(=O)NCc3ccccc3)cc2)CC1 as the compound, how does the Potency read?
The Potency was inconclusive: 11.6 µM [activator, partial curve, poor fit].

Which Potency does the source give for Cc1c(C(=O)C(=O)N2CCCc3ccccc32)c2ccccc2n1C here?
The Potency was inconclusive: 18.4 µM [activator, single point].

Which Potency does the source give for COc1ccccc1Cn1c(=S)[nH]c2ccccc2c1=O here?
Its Potency is “inactive”.

With C=CCc1ccccc1OCCSc1nc2ccc([N+](=O)[O-])cc2s1 as the compound, how does the Potency read?
Its Potency is inconclusive: 7.31 µM [activator, partial curve, poor fit].

For Clc1cc(Br)ccc1OCCOCCN1CCCC1, which Potency is on record?
The Potency was inconclusive: 10.3 µM [activator, partial curve, poor fit].

For CN(C)S(=O)(=O)c1cc(NC(=O)CSc2ncc(C(F)(F)F)cc2Cl)ccc1Cl, which Potency is on record?
The Potency was “inactive”.

For Cc1ccc(/C=N\Nc2nc3ccc(Cl)cc3[nH]2)o1, which Potency is on record?
Its Potency is inconclusive: 29.1 µM [activator, single point].

With O=S(=O)(Nc1nc2ccccc2nc1NCC1CCCO1)c1cccs1 (stereo unspecified) as the compound, how does the Potency read?
The Potency was inconclusive: 29.1 µM [activator, partial curve, poor fit].

With C=CCn1c(SCC(=O)Nc2ccc(NC(C)=O)cc2)nc2sc(C)c(C)c2c1=O as the compound, how does the Potency read?
The Potency was inconclusive: 16.4 µM [activator, single point].

With C/C(=N/NC(=O)c1cc(C)[nH]n1)c1ccco1 as the compound, how does the Potency read?
The Potency was “inactive”.

With CC(C)[C@H](NC(=O)OCc1ccccc1)C(=O)NC(C=O)Cc1ccccc1 (stereo partly specified) as the compound, how does the Potency read?
The Potency was inconclusive: 6.51 µM [activator, single point].

Which Potency does the source give for O=C(Nc1ncc([N+](=O)[O-])s1)c1cccs1 here?
Its Potency is “inactive and inconclusive: 1.16 µM [activator, single point]”.

For O=S(=O)(Nc1cccc(S(=O)(=O)N2CCCCC2)c1)c1ccccc1F, which Potency is on record?
The Potency was inconclusive: 6.51 µM [activator, single point].

For COc1ccc(NC(=O)/C(C#N)=C/c2ccc(OCCN3CCOCC3)c(OC)c2)c(OC)c1, which Potency is on record?
The Potency was “inactive”.

With CN(C)CCCN1c2ccc3ccccc3c2Sc2cccc(Cl)c21 as the compound, how does the Potency read?
The Potency was inconclusive: 23.1 µM [activator, single point].

For CCn1c2ccccc2c2nnc(SCCCn3c(=O)[nH]c4ccccc43)nc21, which Potency is on record?
The Potency was inconclusive: 20.6 µM [activator, single point].

Which Potency does the source give for Cc1cccn2c(=O)c3cc(C(=O)NCc4ccco4)c(=N)n(CCOCCO)c3nc12 here?
Its Potency is inconclusive: 23.1 µM [activator, single point].

Which Potency does the source give for O=C(CC(O)c1ccccc1)Nc1ccccn1 (stereo unspecified) here?
Its Potency is “inactive”.

Which Potency does the source give for O=C(NC(=S)N1CCN(c2ccc(C(F)(F)F)cc2[N+](=O)[O-])CC1)c1cccs1 here?
The Potency was inconclusive: 29.1 µM [activator, single point].

With Cc1cc(C)cc(NC(=O)C(OC(=O)c2ccc([N+](=O)[O-])o2)c2ccccc2)c1 (stereo unspecified) as the compound, how does the Potency read?
The Potency was inconclusive: 20.6 µM [activator, partial curve].

For Cc1ccc(OCC(=O)N/N=C/c2cn(C)c3ccccc23)cc1, which Potency is on record?
The Potency was inconclusive: 29.1 µM [activator, single point].

Which Potency does the source give for Cc1ccc(OCCOCCN2CCCC2)c(Br)c1 here?
Its Potency is inconclusive: 25.9 µM [activator, single point].

Which Potency does the source give for O=C(CNC(=S)N(Cc1ccccc1)Cc1ccccc1F)NCc1ccccc1 here?
Its Potency is inconclusive: 29.1 µM [activator, single point].

Which Potency does the source give for CC(=O)OC[C@]1(OC(C)=O)C[C@@]23CC[C@H]4[C@@](C)(CCC[C@@]4(C)C(=O)O)[C@@H]2CC[C@@H]1C3 here?
Its Potency is inconclusive: 32.6 µM [activator, single point].

Which Potency does the source give for COc1ccc(-c2nnn(CC(=O)N(CCCN3CCOCC3)C(C(=O)NC3CCCC3)c3ccc(C)o3)n2)cc1 (stereo unspecified) here?
The Potency was inconclusive: 29.1 µM [activator, single point].

With COc1ccc(S(=O)(=O)C(C#N)c2nc3ccccc3nc2N2CCCC(C)C2)cc1 (stereo unspecified) as the compound, how does the Potency read?
The Potency was active: 11.6 µM.

With COc1ccc(C2CC(=O)c3cnc(N)nc3C2)c(OC)c1 (stereo unspecified) as the compound, how does the Potency read?
The Potency was “inactive”.

For Cc1ccc(-c2nnc(N(C)C(=O)C3CCCO3)s2)cn1 (stereo unspecified), which Potency is on record?
The Potency was inconclusive: 35.5 µM [activator, single point].

Which Potency does the source give for C[C@@H]1CN([C@H](C)CO)C(=O)c2cc(NS(=O)(=O)c3ccc(F)cc3)ccc2O[C@@H]1CN(C)Cc1ccc(Cl)c(Cl)c1 here?
The Potency was “inactive”.

With CC(C)CN(CC(C)C)c1ccc(/C=N/n2cnnc2)cc1[N+](=O)[O-] as the compound, how does the Potency read?
The Potency was inconclusive: 20.6 µM [activator, single point].

With O=c1cc(N2CCCCC2)c(-c2ccccc2)nn1Cc1cccc(F)c1 as the compound, how does the Potency read?
The Potency was active: 20.6 µM.

Which Potency does the source give for CCCCC(C(=O)NC1CCCC1)N(Cc1ccco1)C(=O)Cn1nnc(-c2ccc(F)cc2)n1 (stereo unspecified) here?
The Potency was inconclusive: 3.66 µM [activator, partial curve, poor fit].

Which Potency does the source give for Cc1c(NC(=O)c2cccc(NC(=O)COc3ccc(C#N)cc3)c2)c(=O)n(-c2ccccc2)n1C here?
Its Potency is inconclusive: 0.58 µM [activator, single point].

For COc1ccc(S(=O)(=O)N2CCCCCC2)cc1C(=O)NCc1ccco1, which Potency is on record?
Its Potency is “inactive”.

With COc1cc(C2C(C(=O)c3ccco3)=C(O)C(=O)N2CC2CCCO2)ccc1O (stereo unspecified) as the compound, how does the Potency read?
Its Potency is inconclusive: 6.51 µM [activator, partial curve, poor fit].

Which Potency does the source give for Cc1ccc2c(c1)c1c(n2CC(O)CN2CCCCCC2)CCCC1 (stereo unspecified) here?
The Potency was inconclusive: 20.6 µM [activator, partial curve, poor fit].
